Measured values from the supplement of paper PMC11417369.
± gives the standard deviation of the averaged measurements. The list shows a part of the results.

tested on: PfAP2-I AP2 domain 3 (GST-tagged); experiment: gcPBM binding intensity (ln(normalized median fluorescence intensity)); higher = stronger DNA binding
How it was run: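 An Agilent 4 × 180k array of primer-extended double-stranded 36-bp intergenic genomic probes, with negative controls, was incubated for 1 h with GST-tagged P. falciparum DNA-binding domains expressed in E. coli. Alexa488 anti-GST antibody detected bound protein, scanned at 488 nm. Binding intensity is the highest Masliner-normalised natural-log median intensity across replicate spots of either probe orientation.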

In order of rising “gcPBM binding intensity (ln)” value:
1. TGGAGGTCAGTTCACAGTACCCAGAAACTCTACGAG [XGTACX_site2007]  7.29 ± 0.54
2. ATTTATTTTATAATATATAAATGATATATCTTATTA [CACACA_negctrl_site66]  7.31 ± 0.45
3. TGTAGATAAAATAAACGTACGTATTGATTTTTTTCA [XGTACX_site1610]  7.42 ± 0.47
4. TATTGTATAAAAATAACATGCAATCCTTATACTGCT [TGCATGCA_site345]  7.42 ± 0.73
5. AGAGGAAAAATAAAAGGAAAAAAGAAAATAATATTG [CACACA_negctrl_site852]  7.45 ± 0.73
6. ATATATTACAATATATGTACTTAATTTGCTTAAATA [XGTACX_site7912]  7.49 ± 0.41
7. TAATATATAAAAAGATGTACTTTTGCAAGTTCCTTT [XGTACX_site8519]  7.54 ± 0.67
8. GTAATAAAAAATTAATGTACTTTATATAATATATTA [XGTACX_site5935]  7.58 ± 0.28
9. CCATATGATATATATTGTACATTATATATTATTTCT [XGTACX_site1697]  7.58 ± 0.47
10. TTTTACAAGTATTGATAAATAAGAAATATATAAAAT [CACACA_negctrl_site529]  7.58 ± 0.59
11. TTAATATTTGTTCTGATCCTTTTATTCAACTTTTTT [CACACA_negctrl_site536]  7.62 ± 0.81
12. CACAGAAATATTCTTATACACACTGTTCTTATATTC [CACACA_site288]  7.63 ± 0.61
13. TCTAATTTAAAATACACACACATATCTATAATATAT [CACACA_site7029]  7.63 ± 0.28
14. TATTTGGGTATTTTTACACACATTAAAATATATATA [CACACA_site5800]  7.63 ± 0.67
15. TTTTACGTGAGTAATACACACATATAAGTTTATATA [CACACA_site4120]  7.68 ± 0.58
16. TGTATGTTAAATACAACACACAAAAAAAAACAAGTT [CACACA_site4324]  7.7 ± 0.71
17. ATCATTTTTAATAAATGTACAAGTTTTAAAAAAAAA [XGTACX_site7340]  7.7 ± 0.6
18. ATAATTCCATAAAATAGACACACGAATGTATAATAT [CACACA_site477]  7.71 ± 0.67
19. GGACTTTATAAAAATGGTACACGCAATTCTATAATC [XGTACX_site6515]  7.73 ± 0.69
20. AACTATAAAAGTTTTACACACTGTTTTTAAATAATG [CACACA_site7686]  7.76 ± 0.81
21. ACATATGAATATAATACACACTTGTATTCTTAATAT [CACACA_site5085]  7.78 ± 0.5
22. TATTTGTAAAGACATGCATGGTACTTTTAAAACATA [TGCATGCA_site7]  7.79 ± 0.49
23. TGTACAGTAAATACAACACACATTTGTATAAATATA [CACACA_site4705]  7.79 ± 0.48
24. ATATTATTATTAGTTTCACACATTTAATGAAACTAA [CACACA_site5677]  7.81 ± 0.41
25. GTTATAATTTAGTCAAGTACATGCGTATGTATATTC [XGTACX_site3763]  7.83 ± 0.4
26. TTTTTGTATTCTCCGGACTACATTATGTTGTAAATG [CACACA_negctrl_site691]  7.84 ± 0.78
27. TACCACTTTCGAAGTAGTACATGGCTTTTTTTTTTT [XGTACX_site8379]  7.86 ± 0.52
28. GGTACATACAAACACACACACAAAAAAAAAAAAATA [CACACA_site1577]  7.86 ± 0.18
29. TTTTCTTTCTTGTTTCGTATATTATAAAAAAAAAAG [CACACA_negctrl_site854]  7.87 ± 0.46
30. TATAACTTTTTTAATACACACAAATATTTATTTATA [CACACA_site7425]  7.89 ± 0.24
31. AATGACATTCTTACACGTACAAAATAAAAAATAAAA [XGTACX_site6932]  7.89 ± 0.59
32. TTATGCATAAAAGGTGGTACTCCGTATATACATTCT [XGTACX_site4354]  7.92 ± 0.66
33. TGGTAATACCCATACACACACACATACACATATATA [CACACA_site8877]  7.93 ± 0.37
34. TATATATTATATTCATGTACGTAAAAATTTTGAATA [XGTACX_site6734]  7.985 ± 0.064
35. GTATAAAAATTTAGGAGTACAATATATTTATAATAT [XGTACX_site2127]  8.055 ± 0.064
36. ATAATATTTTAGAGCAGTACACTTTTATATTTATTG [XGTACX_site5728]  8.14 ± 0.61
37. GTATTTTGCATAAATGCATGTAAATATATACCTACC [TGCATGCA_site957]  8.3 ± 0.92
38. TAAAACAGAATGAGGAGTACAAAAAGAAGAAAAGGG [XGTACX_site1246]  8.35 ± 0.52
39. GGTAGGTGAATATATACACACATATATTATATATAT [CACACA_site1984]  8.36 ± 0.52
40. GTAATCCACAAACACACACACATACACATATATATA [CACACA_site2728]  8.36 ± 0.63
41. TATAAATTATAAATTGCACACATATTTTTATATTTA [CACACA_site8974]  8.49 ± 0.057
42. GGCATACACGAACACACACACACACGCACATATATA [CACACA_site6426]  8.49 ± 0.4
43. AAAAAAACAACATGCACACGCACACCCAAAAAAAGC [CACACA_site72]  8.7 ± 0.59
44. ATTACCATATAAAACACACAAACATACATACATACA [CACACA_site3729]  8.81 ± 0.51
45. TACACATGTTTAAAATGTACGTTTTATAACACACAC [XGTACX_site8229]  8.86 ± 0.2
46. TATAAATTAAAATCAGTGCATATTTTGAAAAACCTC  9.19 ± 0.41
47. TATATATATATATATTGTACATATTAATATTAGAAA [XGTACX_site8923]  9.2 ± 0.27
48. ATATATATATATGTATGTACGTATGTATGTATGAAT [XGTACX_site4857]  9.26 ± 0.42
49. AAAAAAAATTAAGCATGTATAAATATATATATATAT [CACACA_negctrl_site1540]  9.26 ± 0.32
50. AAAATAAATATTACATGTACATATATATATATATAT [XGTACX_site8492]  9.28 ± 0.37
51. TAATATATATTATATACACACATATATATATATATA [CACACA_site428]  9.4 ± 0.38
52. ATATATATATGTGTGTGTACATATGATTTCGCACTT [XGTACX_site4449]  9.42 ± 0.13
53. TATACAGATAAATACACACACATATATATATATATA [CACACA_site4178]  9.43 ± 0.45
54. TGAAATAACCCATGTGCATGCACTTCAATAACTGAA [TGCATGCA_site1041]  9.54 ± 0.47
55. TATGTTGTTTATTTAGTGCATATTTAAATATTATAA [GTGCAC_site9601]  10.16 ± 0.078
56. GTGTATTTTGTGCGCACACACATGCAAAAAGAAATA [CACACA_site6660]  10.7 ± 0.34
57. CAGTTGTTAATTTGTGTGCACCAAATATTATACATA  11 ± 0.33
